# The other results are listed elsewhere or left out.
# Columns and labels:
# HSkMC = human skeletal muscle cells; experiment: cytotoxicity call (relative viability < 0.9); settings: 10 µM
# HepG2 = experiment: cytotoxicity call (relative viability < 0.9); settings: 10 µM
# S. aureus RN4220 = experiment: growth inhibition call (relative growth <= 0.2); settings: 50 µM
SMILES,cytotoxicity call (HSkMC),cytotoxicity call (HepG2),growth inhibition call (S. aureus RN4220)
C[C@@H]1CCCCO[C@H](CN(C)Cc2ccc(C(F)(F)F)cc2)[C@H](C)CN([C@@H](C)CO)C(=O)c2cc(NC(=O)Nc3ccc(C(F)(F)F)cc3)ccc2O1,active,active,inactive
C[C@@H]1CN([C@@H](C)CO)C(=O)Cc2cc(NC(=O)Cc3cn(C)c4ccccc34)ccc2O[C@H]1CN(C)C,inactive,inactive,inactive
O=C(C[C@@H]1CC[C@@H]2[C@H](COC[C@H](O)CN2C(=O)CCN2CCCCC2)O1)NCCCN1CCOCC1,inactive,inactive,inactive
NCCCC[C@H](NC(=O)[C@@H](NC(=O)[C@H](Cc1c[nH]c2ccccc12)NC(=O)[C@H](CCCCN)NC(=O)[C@H](CCCCN)NC(=O)[C@H](Cc1c[nH]c2ccccc12)NC(=O)[C@H](Cc1c[nH]c2ccccc12)NC(=O)[C@H](CCCCN)NC(=O)[C@@H](N)CCCCN)C(c1ccccc1)c1ccccc1)C(N)=O,inactive,inactive,inactive
O=C(C[C@@H]1C=C[C@@H](NC(=O)Nc2cc(F)ccc2F)[C@H](CO)O1)NCCCN1CCOCC1,inactive,inactive,inactive
O=C(C[C@H]1C=C[C@@H](NC(=O)Cc2ccccn2)[C@H](CO)O1)NCCc1ccncc1,inactive,inactive,inactive
C[C@H]1CCCCO[C@H](CN(C)C(=O)Nc2ccc(C(F)(F)F)cc2)[C@@H](C)CN([C@@H](C)CO)C(=O)c2cc(NC(=O)Nc3ccc(F)cc3)ccc2O1,inactive,inactive,inactive
Cc1ccc(S(=O)(=O)N(C)C[C@H]2Oc3ccc(NS(C)(=O)=O)cc3CC(=O)N([C@@H](C)CO)C[C@@H]2C)cc1,inactive,inactive,inactive
C[C@H]1CCCCO[C@@H](CN(C)C(=O)C2CCCCC2)[C@@H](C)CN([C@@H](C)CO)C(=O)c2cc(NC(=O)Nc3ccc(C(F)(F)F)cc3)ccc2O1,inactive,active,inactive
CN(C)CC(=O)N[C@H]1C=C[C@H](CC(=O)NCCN2CCCCC2)O[C@@H]1CO,inactive,inactive,inactive
CO[C@H]1CN(C)C(=O)c2ccc(NS(=O)(=O)CC(F)(F)F)cc2OC[C@@H](C)N(Cc2nccs2)C[C@H]1C,inactive,inactive,inactive
Cc1ccc(S(=O)(=O)N(C)C[C@@H]2Oc3ccc(NC(=O)Nc4ccc(C(F)(F)F)cc4)cc3CC(=O)N([C@H](C)CO)C[C@@H]2C)cc1,active,active,inactive
Cc1ccc(S[C@]2(C(=O)NCCN3CCOCC3)CC(=O)N(C(C)C)[C@@H]2c2ccc(CO)cc2)cc1,inactive,inactive,inactive
Cc1noc(C)c1S(=O)(=O)Nc1ccc2c(c1)C(=O)N([C@@H](C)CO)C[C@@H](C)[C@@H](CN(C)S(C)(=O)=O)OCCCC[C@@H](C)O2,inactive,inactive,inactive
Cc1cc(O)c(C=O)c2c1C(=O)Oc1c(COC(=O)C=CC(=O)O)c(O)c(C(=O)O)c(C)c1O2,inactive,inactive,inactive
C[C@@H]1CCCCO[C@H](CN(C)C(=O)CCC(F)(F)F)[C@H](C)CN([C@@H](C)CO)C(=O)c2cc(NS(=O)(=O)c3ccccc3)ccc2O1,inactive,inactive,inactive
C[C@H]1CN([C@@H](C)CO)C(=O)Cc2cc(NS(C)(=O)=O)ccc2O[C@@H]1CN(C)C,inactive,inactive,inactive
C[C@@H]1CCCCO[C@H](CN(C)C(=O)Nc2ccc3c(c2)OCO3)[C@H](C)CN([C@H](C)CO)C(=O)c2cc(NC(=O)Cc3ccccc3)ccc2O1,inactive,inactive,inactive
CCNc1ncnc2c1nnn2C,inactive,inactive,inactive
C[C@H](CO)N1C[C@H](C)[C@@H](CN(C)S(=O)(=O)c2cccs2)OCCCC[C@H](C)Oc2ccc(NC(=O)CCC(F)(F)F)cc2C1=O,inactive,inactive,inactive
Cc1ccc(S(=O)(=O)N(C)C[C@@H]2Oc3ccc(N(C)C)cc3CC(=O)N([C@H](C)CO)C[C@@H]2C)cc1,inactive,active,inactive
C=CC[C@@H](CC(=O)N(CCO)Cc1ccccc1)C(=O)N[C@H](COC(=O)[C@H](CC=C)NC(=O)OCC1c2ccccc2-c2ccccc21)c1ccccc1,inactive,inactive,inactive

SMILES,cytotoxicity call (HSkMC),cytotoxicity call (HepG2),growth inhibition call (S. aureus RN4220)
C[C@@H]1CN([C@H](C)CO)C(=O)Cc2cc(NC(=O)Nc3cccc4ccccc34)ccc2O[C@H]1CN(C)Cc1ccc2c(c1)OCO2,inactive,inactive,inactive
O=C(CCC1CCCCC1)NCCC12CC3CC(CC(C3)C1)C2,inactive,inactive,inactive
CN(C)C(=O)C[C@H]1C=C[C@H](NC(=O)C2CCOCC2)[C@H](CO)O1,inactive,inactive,inactive
C[C@H](CO)N1C[C@H](C)[C@@H](CN(C)CC2CC2)Oc2ccc(NS(=O)(=O)c3ccccc3)cc2CC1=O,inactive,inactive,inactive
C[C@H](CO)N1C[C@H](C)[C@@H](CN(C)Cc2ccc(C(F)(F)F)cc2)Oc2ccc(NC(=O)C3CCCCC3)cc2CC1=O,inactive,inactive,inactive
C[C@@H]1CN([C@H](C)CO)S(=O)(=O)c2ccc(/C=C/c3ccccc3)cc2O[C@@H]1CN(C)C(=O)CN1CCOCC1,inactive,inactive,inactive
Cc1ccc(-c2ccc3c(c2)O[C@H](CN(C)C(=O)NC(C)C)[C@@H](C)CN([C@@H](C)CO)S3(=O)=O)cc1,inactive,inactive,inactive
COc1cc2c(c3ccccc13)OC(C)(C)C=C2,inactive,inactive,inactive
CO[C@H](CN(C)C(=O)c1ccc2c(c1)OCO2)[C@@H](C)CN([C@H](C)CO)S(=O)(=O)c1ccc(C)cc1,inactive,inactive,inactive
CS(=O)(=O)N1CCCn2c(nc(CNC(=O)CC3CC3)cc2=O)C1,inactive,inactive,inactive
C[C@@H]1CN([C@H](C)CO)C(=O)c2cccc(NC(=O)Nc3ccc4c(c3)OCO4)c2O[C@@H]1CN(C)S(=O)(=O)c1cn(C)cn1,inactive,inactive,inactive
C[C@H](CO)N1C[C@H](C)[C@H](CN(C)S(=O)(=O)c2cccs2)Oc2c(NC(=O)C3CCOCC3)cccc2C1=O,inactive,inactive,inactive
CCC[C@@H](O)C#Cc1cnc2c(c1)C(=O)N([C@H](C)CO)C[C@H](C)[C@H](CN(C)C(=O)Nc1c(C)noc1C)O2,inactive,inactive,inactive
C[C@H](CO)N1C[C@H](C)[C@@H](CN(C)S(=O)(=O)c2ccccc2)Oc2ccc(NC(=O)Cc3ccccc3)cc2CC1=O,inactive,inactive,inactive
O=C(C[C@H]1C=C[C@H](NS(=O)(=O)c2ccc(F)cc2)[C@@H](CO)O1)NCCN1CCCCC1,inactive,inactive,inactive
Cc1noc(C)c1S(=O)(=O)Nc1ccc2c(c1)C(=O)N([C@@H](C)CO)C[C@H](C)[C@H](CN(C)C(=O)Nc1ccccc1)OCCCC[C@H](C)O2,inactive,inactive,inactive
COc1ccc(CN(C)C[C@@H]2OCCCC[C@H](C)Oc3ccc(NC(=O)Nc4ccc(F)cc4)cc3C(=O)N([C@H](C)CO)C[C@@H]2C)cc1,inactive,active,inactive
COCCOC(=O)N1C(=O)[C@@]2(c3cc(C#CCCO)ccc31)[C@H](C(=O)NC[C@H](O)c1ccccc1)[C@H]1C(=O)O[C@H](c3ccccc3)[C@H](c3ccccc3)N1[C@@H]2c1ccccc1OCCO,inactive,inactive,inactive
C[C@@H]1CCCCO[C@H](CN(C)S(=O)(=O)c2ccc(Cl)cc2)[C@@H](C)CN([C@H](C)CO)C(=O)c2cc(NC(=O)CCC(F)(F)F)ccc2O1,inactive,inactive,inactive
C[C@H](CO)N1C[C@H](C)[C@H](CN(C)CC2CCOCC2)Oc2cc(C#Cc3cccnc3)ccc2S1(=O)=O,inactive,inactive,inactive
O=C(C[C@H]1CC[C@H]2[C@@H](COC[C@@H](O)CN2S(=O)(=O)c2ccc(Cl)cc2)O1)N1CCc2ccccc2C1,inactive,inactive,inactive

# Source: the antibiotic and cytotoxicity screens of Wong et al. (2023)
